T1: IL4 (human, UniProt P05112)
T1 chain: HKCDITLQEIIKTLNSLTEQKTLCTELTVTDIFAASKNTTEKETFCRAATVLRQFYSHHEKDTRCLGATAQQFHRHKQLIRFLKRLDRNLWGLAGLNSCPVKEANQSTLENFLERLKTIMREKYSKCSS


How the values were obtained:
IL13 = IL13 (human, UniProt P35225)
IL4 = molecular target: T1, IL4

Chain of IL13 (P35225 35-146): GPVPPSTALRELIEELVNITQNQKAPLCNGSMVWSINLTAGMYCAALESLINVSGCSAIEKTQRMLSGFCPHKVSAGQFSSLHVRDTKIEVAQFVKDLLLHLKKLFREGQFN

Binder	binding result (IL13)	binding result (IL4)
Cross-over IL13(G4S)IL4CH1-Fc / IL4(G4S)IL13CL (antibody) chain 1: EVQLKESGPGLVAPGGSLSITCTVSGFSLTDSSINWVRQPPGKGLEWLGMIWGDGRIDYADALKSRLSISKDSSKSQVFLEMTSLRTDDTATYYCARDGYFPYAMDFWGQGTSVTVSSGGGGSQVQLQQSGPELVKPGASVKISCKASGYSFTSYWIHWIKQRPGQGLEWIGMIDPSDGETRLNQRFQGRATLTVDESTSTAYMQLRSPTSEDSAVYYCTRLKEYGNYDSFYFDVWGAGTLVTVSS[letters of human IgG1 constant region not shown] chain 2: DIQMTQSPASLSVSVGDTITLTCHASQNIDVWLSWFQQKPGNIPKLLIYKASNLHTGVPSRFSGSGSGTGFTLTISSLQPEDIATYYCQQAHSYPFTFGGGTKLEIKGGGGSDIVLTQSPASLAVSLGQRATISCRASESVDSYGQSYMHWYQQKAGQPPKLLIYLASNLESGVPARFSGSGSRTDFTLTIDPVQAEDAATYYCQQNAEDSRTFGGGTKLEIKRTVAAPSVFIFPPSDEQLKSGTASVVCLLNNFYPREAKVQWKVDNALQSGNSQESVTEQDSKDSTYSLSSTLTLSKADYEKHKVYACEVTHQGLSSPVTKSFNRGEC	no binding	
Cross-over IL13(G4S)IL4CH1-Fc / IL4(G4S2)IL13CL (antibody) chain 1: EVQLKESGPGLVAPGGSLSITCTVSGFSLTDSSINWVRQPPGKGLEWLGMIWGDGRIDYADALKSRLSISKDSSKSQVFLEMTSLRTDDTATYYCARDGYFPYAMDFWGQGTSVTVSSGGGGSQVQLQQSGPELVKPGASVKISCKASGYSFTSYWIHWIKQRPGQGLEWIGMIDPSDGETRLNQRFQGRATLTVDESTSTAYMQLRSPTSEDSAVYYCTRLKEYGNYDSFYFDVWGAGTLVTVSS[letters of human IgG1 constant region not shown] chain 2: DIQMTQSPASLSVSVGDTITLTCHASQNIDVWLSWFQQKPGNIPKLLIYKASNLHTGVPSRFSGSGSGTGFTLTISSLQPEDIATYYCQQAHSYPFTFGGGTKLEIKGGGGSGGGGSDIVLTQSPASLAVSLGQRATISCRASESVDSYGQSYMHWYQQKAGQPPKLLIYLASNLESGVPARFSGSGSRTDFTLTIDPVQAEDAATYYCQQNAEDSRTFGGGTKLEIKRTVAAPSVFIFPPSDEQLKSGTASVVCLLNNFYPREAKVQWKVDNALQSGNSQESVTEQDSKDSTYSLSSTLTLSKADYEKHKVYACEVTHQGLSSPVTKSFNRGEC	no binding	

Continued, values first:

binding result (IL13)	binding result (IL4)	Binder
no binding	no binding	Cross-over IL13(G4S2)IL4CH1-Fc / IL4(G4S2)IL13CL (antibody) chain 1: EVQLKESGPGLVAPGGSLSITCTVSGFSLTDSSINWVRQPPGKGLEWLGMIWGDGRIDYADALKSRLSISKDSSKSQVFLEMTSLRTDDTATYYCARDGYFPYAMDFWGQGTSVTVSSGGGGSGGGGSQVQLQQSGPELVKPGASVKISCKASGYSFTSYWIHWIKQRPGQGLEWIGMIDPSDGETRLNQRFQGRATLTVDESTSTAYMQLRSPTSEDSAVYYCTRLKEYGNYDSFYFDVWGAGTLVTVSS[letters of human IgG1 constant region not shown] chain 2: DIQMTQSPASLSVSVGDTITLTCHASQNIDVWLSWFQQKPGNIPKLLIYKASNLHTGVPSRFSGSGSGTGFTLTISSLQPEDIATYYCQQAHSYPFTFGGGTKLEIKGGGGSGGGGSDIVLTQSPASLAVSLGQRATISCRASESVDSYGQSYMHWYQQKAGQPPKLLIYLASNLESGVPARFSGSGSRTDFTLTIDPVQAEDAATYYCQQNAEDSRTFGGGTKLEIKRTVAAPSVFIFPPSDEQLKSGTASVVCLLNNFYPREAKVQWKVDNALQSGNSQESVTEQDSKDSTYSLSSTLTLSKADYEKHKVYACEVTHQGLSSPVTKSFNRGEC
no binding		Cross-over IL13(G4S2)IL4CH1-Fc / IL4(G4S)IL13CL (antibody) chain 1: EVQLKESGPGLVAPGGSLSITCTVSGFSLTDSSINWVRQPPGKGLEWLGMIWGDGRIDYADALKSRLSISKDSSKSQVFLEMTSLRTDDTATYYCARDGYFPYAMDFWGQGTSVTVSSGGGGSGGGGSQVQLQQSGPELVKPGASVKISCKASGYSFTSYWIHWIKQRPGQGLEWIGMIDPSDGETRLNQRFQGRATLTVDESTSTAYMQLRSPTSEDSAVYYCTRLKEYGNYDSFYFDVWGAGTLVTVSS[letters of human IgG1 constant region not shown] chain 2: DIQMTQSPASLSVSVGDTITLTCHASQNIDVWLSWFQQKPGNIPKLLIYKASNLHTGVPSRFSGSGSGTGFTLTISSLQPEDIATYYCQQAHSYPFTFGGGTKLEIKGGGGSDIVLTQSPASLAVSLGQRATISCRASESVDSYGQSYMHWYQQKAGQPPKLLIYLASNLESGVPARFSGSGSRTDFTLTIDPVQAEDAATYYCQQNAEDSRTFGGGTKLEIKRTVAAPSVFIFPPSDEQLKSGTASVVCLLNNFYPREAKVQWKVDNALQSGNSQESVTEQDSKDSTYSLSSTLTLSKADYEKHKVYACEVTHQGLSSPVTKSFNRGEC
